{
  "source": "the BET-seq Pho4 binding data (Le et al. 2018)",
  "note": "Some of the results follow. Values were computed here from the reads of four pooled replicates and scatter widely.",
  "data": [
    {"biological_target": "T1, Pho4 (S. cerevisiae) (UniProt P07270)", "T1 sequence": "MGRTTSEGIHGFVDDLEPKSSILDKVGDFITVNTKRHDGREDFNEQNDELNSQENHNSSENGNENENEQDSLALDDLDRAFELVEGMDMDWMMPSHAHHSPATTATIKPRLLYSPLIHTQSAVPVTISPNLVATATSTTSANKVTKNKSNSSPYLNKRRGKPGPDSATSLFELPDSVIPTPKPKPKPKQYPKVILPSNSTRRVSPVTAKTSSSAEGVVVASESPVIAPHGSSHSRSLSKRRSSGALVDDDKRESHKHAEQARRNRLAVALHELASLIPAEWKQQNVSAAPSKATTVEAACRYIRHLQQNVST", "experiment": "relative binding free energy (BET-seq); higher = weaker binding", "details": "reference: library average", "units": {"relative binding free energy": "kcal/mol"}, "values": [
      {"sequence": "TTGTGCACGTGAGCAA", "relative binding free energy": 0.23},
      {"sequence": "GGGCTCACGTGTGCTG", "relative binding free energy": 0.16},
      {"sequence": "TAGCTCACGTGGGTAG", "relative binding free energy": 0.03},
      {"sequence": "TAAGTCACGTGGAGGA", "relative binding free energy": -0.04},
      {"sequence": "GTAGACACGTGATAGG", "relative binding free energy": -0.1},
      {"sequence": "TTATCCACGTGGGTAG", "relative binding free energy": -0.27},
      {"sequence": "TATGGCACGTGTTTCG", "relative binding free energy": -0.04},
      {"sequence": "TTCGTCACGTGGTATA", "relative binding free energy": -0.08},
      {"sequence": "GTATTCACGTGGTTAT", "relative binding free energy": 0.26},
      {"sequence": "GTGTGCACGTGAGGGA", "relative binding free energy": 0.39},
      {"sequence": "GGTGGCACGTGTACAT", "relative binding free energy": -0.02},
      {"sequence": "TTTGGCACGTGCGTTG", "relative binding free energy": -0.08},
      {"sequence": "TTTTGCACGTGAACGC", "relative binding free energy": 0.33},
      {"sequence": "GGTCGCACGTGTTGCT", "relative binding free energy": 0.03},
      {"sequence": "TTGCGCACGTGGAATT", "relative binding free energy": 0.02},
      {"sequence": "CTTGCCACGTGAGTGG", "relative binding free energy": 0.16},
      {"sequence": "CGGGACACGTGCTGGG", "relative binding free energy": 0},
      {"sequence": "ATGTACACGTGGCATG", "relative binding free energy": -0.17},
      {"sequence": "GTCTGCACGTGGGAAG", "relative binding free energy": -0.08},
      {"sequence": "TGGCACACGTGGGATG", "relative binding free energy": -0.17},
      {"sequence": "AGTGGCACGTGCGGCT", "relative binding free energy": -0.09},
      {"sequence": "GTTTGCACGTGAGGCC", "relative binding free energy": 0.37},
      {"sequence": "TTATTCACGTGGGCTA", "relative binding free energy": 0.06},
      {"sequence": "AATCTCACGTGTGGTG", "relative binding free energy": 0.13},
      {"sequence": "GGCTTCACGTGGATTG", "relative binding free energy": 0.18},
      {"sequence": "AGCATCACGTGGGAGT", "relative binding free energy": 0.04},
      {"sequence": "TGAAGCACGTGGTCGC", "relative binding free energy": 0.02},
      {"sequence": "CGGAGCACGTGGGGAT", "relative binding free energy": -0.06},
      {"sequence": "GAGGTCACGTGAGGAG", "relative binding free energy": 0.39},
      {"sequence": "CTGCTCACGTGGAGGT", "relative binding free energy": 0.15},
      {"sequence": "CGTTTCACGTGTTTCA", "relative binding free energy": 0.3},
      {"sequence": "TATCGCACGTGAGGCG", "relative binding free energy": 0.16},
      {"sequence": "GGGAGCACGTGAGAGA", "relative binding free energy": 0.3},
      {"sequence": "TCTGGCACGTGCGGGC", "relative binding free energy": -0.16},
      {"sequence": "GTTTACACGTGGTAAG", "relative binding free energy": 0.14},
      {"sequence": "GTTAACACGTGTGTCT", "relative binding free energy": 0.14},
      {"sequence": "GTGTCCACGTGCGTAG", "relative binding free energy": 0.07},
      {"sequence": "AGTCTCACGTGAGGGT", "relative binding free energy": 0.33},
      {"sequence": "ATGGGCACGTGGCCTA", "relative binding free energy": -0.11},
      {"sequence": "TTGGTCACGTGGGAAG", "relative binding free energy": 0.05},
      {"sequence": "TGGTTCACGTGGGACT", "relative binding free energy": 0.21},
      {"sequence": "GTTTGCACGTGGTGCA", "relative binding free energy": 0.13},
      {"sequence": "TAATGCACGTGCTGTG", "relative binding free energy": -0.19},
      {"sequence": "GCTTTCACGTGAGGTA", "relative binding free energy": 0.38},
      {"sequence": "CTGGGCACGTGGCCGG", "relative binding free energy": -0.28},
      {"sequence": "GGGACCACGTGGGGGA", "relative binding free energy": -0.09},
      {"sequence": "TTGTGCACGTGATCAG", "relative binding free energy": -0.09},
      {"sequence": "AAAGGCACGTGTGTTG", "relative binding free energy": -0.06},
      {"sequence": "AAAGTCACGTGGGTGT", "relative binding free energy": 0.02},
      {"sequence": "ATAGTCACGTGGGTCC", "relative binding free energy": 0.15},
      {"sequence": "AATGCCACGTGGGGCG", "relative binding free energy": -0.22},
      {"sequence": "GGATTCACGTGTATCT", "relative binding free energy": 0.24},
      {"sequence": "GGATGCACGTGGGGCA", "relative binding free energy": -0.26},
      {"sequence": "TCTTTCACGTGTACGT", "relative binding free energy": 0.32},
      {"sequence": "CGGTACACGTGTGTGG", "relative binding free energy": 0.06},
      {"sequence": "GTGGTCACGTGCGTGA", "relative binding free energy": 0.04},
      {"sequence": "GTTGTCACGTGTAACG", "relative binding free energy": 0.18},
      {"sequence": "TAGGGCACGTGAGCAA", "relative binding free energy": 0.25},
      {"sequence": "GTAGGCACGTGTAGTT", "relative binding free energy": 0.03},
      {"sequence": "TAAACCACGTGTGGGT", "relative binding free energy": -0.05},
      {"sequence": "AATTTCACGTGATCTT", "relative binding free energy": 0.21},
      {"sequence": "TAAGACACGTGTAGGG", "relative binding free energy": 0.13},
      {"sequence": "TCTGGCACGTGGTAAT", "relative binding free energy": -0.2},
      {"sequence": "AGCGTCACGTGTGAGT", "relative binding free energy": 0.09},
      {"sequence": "GGCATCACGTGAGGAG", "relative binding free energy": 0.39},
      {"sequence": "ATATACACGTGATTAG", "relative binding free energy": 0.08},
      {"sequence": "GGGATCACGTGGCAGG", "relative binding free energy": 0.12},
      {"sequence": "GTTTTCACGTGGGATA", "relative binding free energy": 0.14},
      {"sequence": "TAGGGCACGTGGAAGG", "relative binding free energy": -0.11},
      {"sequence": "CGTCTCACGTGAGGTT", "relative binding free energy": 0.3},
      {"sequence": "TGGAACACGTGCTGTG", "relative binding free energy": 0},
      {"sequence": "GAGGGCACGTGCTAGG", "relative binding free energy": -0.18},
      {"sequence": "TGGTTCACGTGCGAGA", "relative binding free energy": 0.24},
      {"sequence": "CGGTTCACGTGCAGGG", "relative binding free energy": 0.24},
      {"sequence": "TGGTTCACGTGTGTCT", "relative binding free energy": 0.37},
      {"sequence": "TTGCTCACGTGTGGGG", "relative binding free energy": 0.2},
      {"sequence": "TTCTGCACGTGATTCG", "relative binding free energy": 0.13},
      {"sequence": "GGTAGCACGTGGTGAA", "relative binding free energy": -0.13},
      {"sequence": "GTGCTCACGTGGTCTG", "relative binding free energy": 0.19},
      {"sequence": "CTTAGCACGTGGTAGT", "relative binding free energy": -0.18},
      {"sequence": "GAGAACACGTGGAGTT", "relative binding free energy": 0.13},
      {"sequence": "CATTACACGTGTTATG", "relative binding free energy": 0.03},
      {"sequence": "CGGGCCACGTGGCTGG", "relative binding free energy": -0.16},
      {"sequence": "AGGTCCACGTGGTTGC", "relative binding free energy": 0.05},
      {"sequence": "ATGTCCACGTGTAGGT", "relative binding free energy": -0.05},
      {"sequence": "TGGGCCACGTGATGGG", "relative binding free energy": 0.16},
      {"sequence": "AGCTGCACGTGTGGTC", "relative binding free energy": 0.12},
      {"sequence": "GCGTTCACGTGGTTCT", "relative binding free energy": 0.28},
      {"sequence": "GGTCACACGTGTGTGC", "relative binding free energy": 0.16},
      {"sequence": "GGGAGCACGTGCTTGT", "relative binding free energy": -0.16},
      {"sequence": "TGGGTCACGTGCGAGG", "relative binding free energy": 0.05},
      {"sequence": "AATCACACGTGGGGGA", "relative binding free energy": 0.02},
      {"sequence": "GACTTCACGTGTGGGG", "relative binding free energy": 0.31},
      {"sequence": "TGTGACACGTGAGGTC", "relative binding free energy": 0.24},
      {"sequence": "TTGGGCACGTGGGCTC", "relative binding free energy": -0.17},
      {"sequence": "ATAAGCACGTGTGATA", "relative binding free energy": 0.05},
      {"sequence": "GGGGCCACGTGTATTA", "relative binding free energy": 0.04},
      {"sequence": "GTTGGCACGTGATCGG", "relative binding free energy": 0.03},
      {"sequence": "TTGGACACGTGGCCTG", "relative binding free energy": -0.02},
      {"sequence": "CGTCACACGTGTGGTG", "relative binding free energy": -0.02},
      {"sequence": "ATGCGCACGTGGCGTG", "relative binding free energy": -0.29},
      {"sequence": "TCACTCACGTGTGGGG", "relative binding free energy": 0.21},
      {"sequence": "TAGAACACGTGGGTTT", "relative binding free energy": -0.08},
      {"sequence": "GGATACACGTGCTAGG", "relative binding free energy": 0.12},
      {"sequence": "GTATGCACGTGGCGGA", "relative binding free energy": -0.19},
      {"sequence": "TTTTTCACGTGAACAT", "relative binding free energy": 0.23},
      {"sequence": "TGAGCCACGTGGTAGT", "relative binding free energy": -0.28},
      {"sequence": "GAATGCACGTGGGAGA", "relative binding free energy": -0.09},
      {"sequence": "GCGAGCACGTGGGGAT", "relative binding free energy": -0.16},
      {"sequence": "GTGATCACGTGTTATG", "relative binding free energy": 0.14},
      {"sequence": "TAATTCACGTGCTATG", "relative binding free energy": 0.22},
      {"sequence": "ATAAACACGTGTAGTG", "relative binding free energy": -0.02},
      {"sequence": "GGAGTCACGTGTGCAG", "relative binding free energy": -0.04},
      {"sequence": "TCTTGCACGTGGGATT", "relative binding free energy": -0.05},
      {"sequence": "ACTGTCACGTGTGTTT", "relative binding free energy": 0}
    ]}
  ]
}
